PubChem BioAssay AID686978 (National Center for Advancing Translational Sciences (NCATS), 2013)
Several values for one entry are separate records, joined by “and”; a condition that tells them apart may be missing. Equal entries are not always repeated. The whole screen tested about 420,000 compounds, of which about 64,000 (15%) were called active. The shares of active, inactive and inconclusive entries below differ from those in the screen. Calls come from the whole dose curve; as a rule, active = well fitted inhibition curve with a large enough effect; inconclusive = small, poorly fitted or top-dose-only effect; inactive = flat fitted curve, though single readings scatter. A potency beside an inconclusive call is a rough fit, not a confirmed value.

Assay: qHTS for Inhibitors of human tyrosyl-DNA phosphodiesterase 1 (TDP1): qHTS in cells in absence of CPT; note: nearly all actives have a fitted effect of over 55% in size
Conditions: DT40 Tdp1-/- hTDP1 cells, no CPT, ATP luminescence, 48 h; activity change, negative = growth inhibition: at 46.2 µM (top of the series)
How it was run: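 No-CPT arm: Tdp1-/-;hTDP1 DT40 cells (400/well) plus compounds, incubated ≥48 hr at 37 °C. Readout CellTiter-Glo luminescence.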
% is set by controls: 0 for no effect and ±100 for the full control effect; potency is the fitted concentration of half-maximal effect; tags give direction and shape of the fitted curve.

SMILES | Potency | activity change, negative = growth inhibition
O=C(C[C@H]1C(=O)N(Cc2cccnc2)C[C@@H]1Cc1ccccc1)Nc1ccc(Br)cc1 | active: 14.6 µM | –
Cc1ccc(S(=O)(=O)N2CCCCC2C(=O)N2CCN(c3ccccc3F)CC2)cc1 (stereo not drawn) | inconclusive: 25.9 µM [inhibitor, single point] | –
CC(=O)c1sc(N/N=C2\CC3CCC2(C)C3(C)C)nc1C (stereo not drawn) | inconclusive: 29.1 µM [inhibitor, single point] | –
CC(=O)Oc1cccc(/C=C2\Sc3ccccc3C2=O)c1 | inconclusive: 13 µM [inhibitor, single point] | –
COc1ccc(CN(C)S(=O)(=O)c2nnc(NC(=O)c3ccccc3OC)s2)cc1OC | inconclusive: 8.2 µM [inhibitor, partial curve] | –
CC(C)Cc1nc2cc(NS(=O)(=O)N(C)C)cc(C(=O)N3CCN(c4ccccc4)CC3)c2n1C | – | inactive: -11.7%
O=C(NCCS(=O)(=O)N1CCN(c2cccc(Cl)c2)CC1)c1ccc2c(c1)OCO2 | inconclusive: 29.1 µM [inhibitor, single point] | –
CCOC(=S)SCC(=O)Nc1nc(C)c(C)s1 | active: 20.6 µM | –
CCOc1cccc(-c2nc3ccccc3c(=O)o2)c1 | inconclusive: 18.4 µM [inhibitor, single point] | –
O=C1CN(C(=O)c2cccc(Br)c2)C(c2ccccc2)c2cc(Cl)ccc2N1 (stereo not drawn) | inconclusive: 18.4 µM [inhibitor, single point] | –
CC1(C(=O)NCCc2ccccc2)Cc2c(-c3ccc4c(c3)OCO4)ccnc2O1 (stereo not drawn) | active: 2.91 µM | –
Cc1[nH]c(-c2ccccn2)nc(=S)c1Cl | inconclusive: 29.1 µM [inhibitor, single point] | –
Cn1cc(S(=O)(=O)N2CCCC2)cc1C(=O)O | – | inactive: 3.44%
CCOC(=O)c1cc2c(N)c(C(=O)c3ccc(Br)cc3)sc2[nH]c1=O | – | inactive: -7.76%
CC(C)C[C@H]1CN(CCCC[C@@H]2CNC(=O)C(=O)N2Cc2ccccc2)C(=O)C(=O)N1CCc1ccc(O)cc1 | – | inactive: 0.525%
COc1ccc(C(=O)Nc2sc3c(c2C#N)CCN(C(C)=O)C3)cc1 | active: 4.11 µM | –
CCCCN1C(Nc2ccccc2)=NC[C@@H]1CC(C)C | inconclusive: 11.6 µM [inhibitor, partial curve] | –
O=C(NCC1CCCCC1)c1cc(Br)ccc1Cl | inconclusive: 23.1 µM [inhibitor, single point] | –
CCn1c(NCc2ccccc2NS(=O)(=O)c2ccc(C)cc2)nc2ccccc21 | active: 18.4 µM | –
COc1ccc(/C(=N/OC(C)=O)c2nccc3cc(OC)c(OC)cc23)cc1OC | – | inactive: -28.5%
Cc1sc2nc(C3CC3)nc(NCCNS(C)(=O)=O)c2c1C | inconclusive: 16.4 µM [inhibitor, single point] | –
O=C(NCc1ccc(Cl)cc1)c1cc(=O)[nH]c2ccccc12 | – | inactive: 2.39%

SMILES | Potency | activity change, negative = growth inhibition
CN(C)C(=O)c1cccc(-c2ccc3nncn3c2)c1 | – | inactive: -3.96%
CC(C)(C)c1ccc(C(=O)NC2=NC(c3cccc(F)c3)CC(=O)N2)cc1 (stereo not drawn) | inconclusive: 18.4 µM [inhibitor, single point] | –
Cc1cnc2c(N)cc(C)c(C)c2c1 | inconclusive: 23.1 µM [inhibitor, single point] | –
Cc1cc(C)c2oc(C(=O)NCCc3ccc(S(N)(=O)=O)cc3)cc(=O)c2c1 | – | inconclusive: -23.4% [inhibitor]
O=C(CNS(=O)(=O)c1c(Cl)cccc1Cl)OCc1csc(-c2ccccc2)n1 | – | inactive: -27.6%
Cc1ccccc1NC(=S)N/N=C/C(C)c1ccccc1 (stereo not drawn) | active: 13 µM | –
COCCNS(=O)(=O)c1cc(-c2nn3c(C)nnc3c3ccccc23)ccc1C | inconclusive: 29.1 µM [inhibitor, single point] | –
Cc1ccc(NC(=O)N2CCN(C(=O)c3nsc4ccccc34)CC2)cc1C | inconclusive: 29.1 µM [inhibitor, single point] | –
O=C(c1ccccc1)N1N=C(c2ccccc2O)CC1c1ccc(Br)cc1 (stereo not drawn) | inconclusive: 29.1 µM [inhibitor, single point] | –
Cc1cccc(CN2CCN(C3CN(Cc4cn(Cc5ccc(F)cc5)nn4)S(=O)(=O)C3)CC2)c1 (stereo not drawn) | inconclusive: 20.6 µM [inhibitor, single point] | –
O=C(Nc1cccc(-c2ccc(N3CCCCC3)nn2)c1)c1ccc(Br)o1 | active: 11.6 µM | –
C[C@]12CCC(=O)C=C1CC[C@@H]1[C@@H]2CC[C@@]2(C)[C@H]1CC[C@]2(O)C(=O)CO | inconclusive: 10.6 µM [inhibitor, partial curve, poor fit] and inconclusive: 16.4 µM [inhibitor, partial curve] | –
COc1ccc(COc2ccc(C3C(S(=O)(=O)c4ccccc4)CON3C)cc2OC)cc1 (stereo not drawn) | inconclusive: 18.4 µM [inhibitor, single point] | –
O=C(CNS(=O)(=O)c1ccc(Br)s1)N1CCN(c2ccc(F)cc2)CC1 | active: 23.1 µM | –
CCOc1ccc(C(=O)Nc2cc(-c3nc4ccccc4[nH]3)ccc2C)cc1[N+](=O)[O-] | inconclusive: 16.4 µM [inhibitor, single point] | –
c1ccc(C(c2ccccc2)N2CCCC3(CCNCC3)C2)cc1 | active: 6.51 µM | –
Cc1sc2ncnc(N/N=C/c3ccc(O)cc3)c2c1C | inconclusive: 25.9 µM [inhibitor, single point] | –
CCN(CC)S(=O)(=O)c1cccc(-c2nnc(SCC(=O)c3ccc(Cl)s3)n2C)c1 | inconclusive: 25.9 µM [inhibitor, single point] | –
CCCCN(C)C(=O)C1CCCN(S(=O)(=O)c2ccc3c(c2)CC(C)N3C(=O)C2CC2)C1 (stereo not drawn) | inconclusive: 23.1 µM [inhibitor, single point] | –
Cc1ccc(N(C)C(=O)N2CCN(S(=O)(=O)c3ccc(C)c(C)c3)CC2)cc1 | inconclusive: 15.8 µM [inhibitor, single point] | –
CCOC(=O)[C@]12CCCC=C1N(Cc1ccco1)C(=O)[C@H](CC(=O)N1CCSCC1)C2 | inconclusive: 16.4 µM [inhibitor, single point] | –
